Results reported in PubChem BioAssay AID1671194 (National Center for Advancing Translational Sciences (NCATS), 2021).
Hit rate of the full screen: of about 140,000 compounds, about 240 (0.17%) were called active. The shares of active, inactive and inconclusive entries below differ from those in the screen. Calls come from the whole dose curve; as a rule, active = well fitted inhibition curve with a large enough effect; inconclusive = small, poorly fitted or top-dose-only effect; inactive = no such curve, though single readings can be large or run the other way. A potency beside an inconclusive call is a rough fit, not a confirmed value.

Assay: Primary qHTS assay for inhibitors of alpha-synuclein gene (SNCA) expression; note: nearly all actives have a fitted effect of over 45% in size
Conditions: HEK-293 SNCA-luciferase knock-in, luminescence, 24 h; series mostly up to 57.2 µM
Potency is the fitted concentration of half-maximal effect; tags give direction and shape of the fitted curve.

Question: With Cc1ccccc1CN1CCc2nc(C(=O)N3CCOCC3)oc2CC1 as the compound, how does the Potency read?
Answer: The Potency was “inactive”.

Question: With COc1ccc(Cn2c3c(c(=O)n2Cc2ccccc2)CCN(Cc2cccc(O)c2)C3)cc1 as the compound, how does the Potency read?
Answer: Its Potency is inconclusive: 39.8 µM [inhibitor, single point].

Question: Which Potency does the source give for COc1ccc(C2Cn3nnc(-c4noc(Cc5ccccc5OC)n4)c3CO2)cc1 (stereo not drawn) here?
Answer: Its Potency is inconclusive: 8.91 µM [inhibitor, single point].

Question: With C[C@@H]1CCN(C(=O)CC#N)C[C@H]1N(C)c1ncnc2[nH]ccc12 as the compound, how does the Potency read?
Answer: Its Potency is inconclusive: 15.2 µM [inhibitor, partial curve].

Question: Which Potency does the source give for COc1ccc(C(=O)NC[C@@H]2CC[C@H]3C[C@@H]2C3(C)C)cc1 here?
Answer: The Potency was “inactive”.

Question: With CCOc1cccc(C2c3c(oc4ccc(F)cc4c3=O)C(=O)N2c2cc(C)ccn2)c1 (stereo not drawn) as the compound, how does the Potency read?
Answer: Its Potency is inconclusive: 7.94 µM [inhibitor, single point].

Question: Which Potency does the source give for O=C(NCCc1ccccc1)c1nc2cccnc2n(CCc2ccccc2)c1=O here?
Answer: Its Potency is inconclusive: 22.4 µM [inhibitor, single point].

Question: With CN(C)c1ncnc2sc3c(c12)CCN(Cc1ccncc1)C3 as the compound, how does the Potency read?
Answer: Its Potency is inconclusive: 25.1 µM [inhibitor, single point].

Question: With CC(=O)N1CCc2cc(S(=O)(=O)NC(Cc3ccccc3)C(=O)Nc3cc(C)cc(C)c3)ccc21 (stereo not drawn) as the compound, how does the Potency read?
Answer: The Potency was inconclusive: 3.16 µM [inhibitor, full curve, poor fit].

Question: For COc1ccc2[nH]c3c(c2c1)CCNC31CCN(C(=O)c2ccccn2)CC1, which Potency is on record?
Answer: The Potency was inconclusive: 39.8 µM [inhibitor, single point].

Question: With O=C(NCCOCCn1c(=O)oc2ccccc21)Nc1ccc(F)cc1F as the compound, how does the Potency read?
Answer: Its Potency is inconclusive: 25.1 µM [inhibitor, single point].

Question: For CNC(=O)CCn1ncc2cc(OCc3ccccc3-c3cc(F)cc(OC)c3)ccc21, which Potency is on record?
Answer: The Potency was inconclusive: 28.2 µM [inhibitor, single point].

Question: For O=C(NCCC1CCCCC1)c1c[nH]c2ncccc12, which Potency is on record?
Answer: The Potency was “inactive”.

Question: With COc1ccc(-c2nc3ccccc3s2)cc1NC(=O)c1cccc(F)c1 as the compound, how does the Potency read?
Answer: Its Potency is “inactive”.

Question: With O=C(c1ccoc1)N1CCC(Oc2ccccc2-c2nc(-c3ccccc3)no2)C1 (stereo not drawn) as the compound, how does the Potency read?
Answer: Its Potency is inconclusive: 3.16 µM [inhibitor, single point].

Question: Which Potency does the source give for CC(C)C(=O)N1CCCN(c2ccnc3ccnn23)CC1 here?
Answer: The Potency was “inactive”.

Question: For COc1ccc(C(=O)N2CCC(Cc3nncn3-c3ccccc3)C2)cc1F (stereo not drawn), which Potency is on record?
Answer: Its Potency is “inactive”.

Question: With COc1ccc(CNC(=O)c2cc3c(=O)n(Cc4ccc(OC)cc4)ccc3nc2C)cc1 as the compound, how does the Potency read?
Answer: Its Potency is inconclusive: 31.6 µM [inhibitor, single point].

Question: For CCC(=O)N1CCc2cc(S(=O)(=O)NCCC(=O)Nc3ccc(C)cc3C)ccc21, which Potency is on record?
Answer: Its Potency is inconclusive: 2.24 µM [inhibitor, partial curve, poor fit].

Question: For Nc1ncccc1CN1CC(COc2ccccc2)C2(C1)CN(c1ccccc1)C2 (stereo not drawn), which Potency is on record?
Answer: Its Potency is inconclusive: 50.1 µM [inhibitor, single point].

Question: Which Potency does the source give for COCCNc1ncccc1-c1noc([C@@H]2CCCN2Cc2ccccc2OC)n1 here?
Answer: The Potency was “inactive”.

Question: For CC(C)(Oc1nn(Cc2cccc(Cl)c2)c2ccccc12)C(=O)N1CCOCC1, which Potency is on record?
Answer: The Potency was inconclusive: 50.1 µM [inhibitor, single point].

Question: Which Potency does the source give for O=C1NCCOCCN(S(=O)(=O)c2cccc3nsnc23)[C@H]2CCC[C@@H]12 here?
Answer: Its Potency is inconclusive: 5.01 µM [inhibitor, single point].

Question: For Cc1ccc(CC(=O)N2CCc3cn(C)c4cccc(c34)C2)cc1, which Potency is on record?
Answer: Its Potency is “inactive”.

Question: For CNC(=O)[C@H]1C[C@H](Oc2cccnc2)CN1C(=O)Nc1ccc2c(c1)OCCO2, which Potency is on record?
Answer: The Potency was inconclusive: 17.8 µM [inhibitor, single point].

Question: For Cc1ncc2c(c1CNC(=O)Cc1ccc(C(F)(F)F)cc1)CCNC2, which Potency is on record?
Answer: Its Potency is “inactive”.

Question: With Cc1oc2ncnc(N3CCOCC3)c2c1C(=O)Nc1ccc(Br)cc1F as the compound, how does the Potency read?
Answer: The Potency was inconclusive: 2.82 µM [inhibitor, partial curve, poor fit].

Question: With O=C(O)c1ccc2c(c1)N(Cc1ccc(F)cc1)C(=O)c1ccccc1S2=O (stereo not drawn) as the compound, how does the Potency read?
Answer: Its Potency is inconclusive: 7.08 µM [inhibitor, single point].

Question: With O=C(Nc1cccc(F)c1)c1cnc2c(c1)N(C(=O)Cc1cccc(C(F)(F)F)c1)CCC2 as the compound, how does the Potency read?
Answer: Its Potency is “inactive”.

Question: Which Potency does the source give for CC(C)NC(=O)N1CCN(c2nccc(Nc3ccccc3F)n2)CC1 here?
Answer: Its Potency is “inactive”.

Question: Which Potency does the source give for C=CCNC(=O)[C@@H]1Cc2cn(CC#CC)c3cccc(c23)[C@H](CC(C)C)N1 here?
Answer: The Potency was “inactive”.

Question: For N#Cc1ccc(CNC(=O)[C@@H]2Cc3nc[nH]c3CN2Cc2ccc(C(F)(F)F)cc2)cc1, which Potency is on record?
Answer: Its Potency is inconclusive: 8.91 µM [inhibitor, full curve, poor fit].

Question: Which Potency does the source give for Cn1c(=O)oc2cc(S(=O)(=O)CCC(=O)NCCc3ccc(Cl)cc3)ccc21 here?
Answer: The Potency was inconclusive: 11.2 µM [inhibitor, partial curve].

Question: For COc1ccc(NCc2cc3cc4c(cc3n(CC(=O)Nc3ccc(C)c(C)c3)c2=O)OCO4)cc1, which Potency is on record?
Answer: The Potency was inconclusive: 15.8 µM [inhibitor, partial curve, poor fit].

Question: For Cn1c(=O)c2sccc2n2c(CCCC(=O)NC3CCCCC3)nnc12, which Potency is on record?
Answer: Its Potency is inconclusive: 2.82 µM [inhibitor, partial curve, poor fit].

Question: For COc1ccc(-c2nc(C)nc3c2CN(C(=O)c2ccccc2)CC3)cc1, which Potency is on record?
Answer: The Potency was inconclusive: 8.91 µM [inhibitor, single point].

Question: For O=C(Nc1cccc(-c2ccc(N3CCOCC3)nn2)c1)Nc1ccccc1Cl, which Potency is on record?
Answer: The Potency was “inactive”.

Question: Which Potency does the source give for COc1ccc(-n2nc(C3CCN(Cc4ccc(F)cc4)CC3)[nH]c2=O)cc1 here?
Answer: The Potency was inconclusive: 14.1 µM [inhibitor, partial curve, poor fit].

Question: With COc1cc(Cl)c(NS(=O)(=O)c2cc(-c3cc(C)no3)ccc2OC)c(OC)c1 as the compound, how does the Potency read?
Answer: The Potency was inconclusive: 39.8 µM [inhibitor, single point].

Question: For CCS(=O)(=O)c1ncc(Cl)c(C(=O)Nc2ccccc2)n1, which Potency is on record?
Answer: The Potency was active: 2.24 µM.

Question: For O=C(Cc1ccccc1)N1CCC(N2C(=O)C(OCC3CC3)C23CCCCC3)CC1 (stereo not drawn), which Potency is on record?
Answer: Its Potency is inconclusive: 2 µM [inhibitor, full curve, poor fit].

Question: Which Potency does the source give for CN(C)C[C@@H]1CN(c2ncccn2)C[C@H]1NC(=O)c1ccc2[nH]ccc2c1 here?
Answer: The Potency was “inactive”.

Question: Which Potency does the source give for CCn1cc(C(=O)NCCCOC)c(=O)c2cc(S(=O)(=O)N3CCCC3)ccc21 here?
Answer: The Potency was inconclusive: 39.8 µM [inhibitor, single point].

Question: Which Potency does the source give for O=C(c1cn[nH]c1-c1ccc(F)cc1)N1CCCC(Cc2noc(-c3ccccc3)n2)C1 (stereo not drawn) here?
Answer: Its Potency is inconclusive: 39.8 µM [inhibitor, single point].

Question: For COc1ccc(-c2cc(C[C@@H]3C[C@H](NC(=O)c4ccccc4)C3(C)C)no2)cc1, which Potency is on record?
Answer: Its Potency is inconclusive: 2.82 µM [inhibitor, full curve].

Question: Which Potency does the source give for COc1ccc(CNc2nc(-c3ccccc3CN(C)C)nc3ccccc23)c(OC)c1 here?
Answer: The Potency was inconclusive: 39.8 µM [inhibitor, single point].

Question: For COc1ccc(CC(=O)N2CCC(Cc3nc(-c4ccccc4)no3)CC2)cc1Cl, which Potency is on record?
Answer: Its Potency is inconclusive: 12.6 µM [inhibitor, partial curve, poor fit].

Question: Which Potency does the source give for COCCNC(=O)c1nc(-c2ccccc2OC)c2ccccn12 here?
Answer: Its Potency is “inactive”.

Question: With O=C(CC(c1ccc(F)cc1)c1cn(Cc2ccccc2)c2ccc([N+](=O)[O-])cc12)N1CCCC1 (stereo not drawn) as the compound, how does the Potency read?
Answer: Its Potency is inconclusive: 31.6 µM [inhibitor, partial curve, poor fit].

Question: With CCCCNC(=O)c1cc(-c2ccc(OC)cc2)nc2n[nH]c(-c3cccc([N+](=O)[O-])c3)c12 as the compound, how does the Potency read?
Answer: Its Potency is inconclusive: 7.08 µM [inhibitor, single point].

Question: For Cc1ccc(C)c(NC(=O)Cn2cc(C(=O)c3cccs3)c3ccccc32)c1, which Potency is on record?
Answer: Its Potency is inconclusive: 39.8 µM [inhibitor, single point].

Question: Which Potency does the source give for O=C(NC1CCCC1)C1CCN(C(=O)c2ccc(-c3cncnc3)cc2)CC1 here?
Answer: The Potency was inconclusive: 8.91 µM [inhibitor, partial curve, poor fit].

Question: For CC(=O)N1CCC(C(=O)N[C@H]2CCN3C(=O)N(c4ccc(Cl)cc4)C(=O)[C@@H]3C2)CC1, which Potency is on record?
Answer: The Potency was inconclusive: 7.08 µM [inhibitor, single point].

Question: For CC1(C(=O)NCC2CC2)CCc2cnc(NCc3ccccc3)nc21 (stereo not drawn), which Potency is on record?
Answer: The Potency was inconclusive: 11.2 µM [inhibitor, full curve, poor fit].

Question: Which Potency does the source give for CCOC(=O)C1=C(C)N=C2SC=C(CC(=O)NCc3ccco3)N2C1c1ccccc1Cl (stereo not drawn) here?
Answer: Its Potency is inconclusive: 7.08 µM [inhibitor, single point].

Question: With Cc1ccc(NC(=O)C2CCN(S(=O)(=O)c3c(C)noc3/C=C/c3cccs3)CC2)cc1F as the compound, how does the Potency read?
Answer: The Potency was inconclusive: 15.8 µM [inhibitor, partial curve, poor fit].

Question: For O=C(Cc1ccc(Cl)cc1)N[C@H]1[C@H](O)[C@H](O)C[C@@H]1c1ccc(C(F)(F)F)cc1, which Potency is on record?
Answer: The Potency was inconclusive: 15.8 µM [inhibitor, partial curve, poor fit].

Question: For Cc1ccc(-n2nc(C)c3c(C(=O)NCCc4ccccc4)cc(C)nc32)cc1, which Potency is on record?
Answer: The Potency was inconclusive: 1 µM [inhibitor, partial curve, poor fit].

Question: For COc1ccc(C(C)=O)cc1CSc1nc(NCCc2ccccc2)c2ccccc2n1, which Potency is on record?
Answer: Its Potency is inconclusive: 3.55 µM [inhibitor, single point].

Question: Which Potency does the source give for COc1ccc(-c2nc(Cn3c(SCc4cccc(C(F)(F)F)c4)nc4cccnc43)c(C)o2)cc1OC here?
Answer: The Potency was inconclusive: 31.6 µM [inhibitor, single point].

Question: With CC(Cn1cccn1)C(=O)N1CCC2(CC1)Nc1ccccc1NC2=O (stereo not drawn) as the compound, how does the Potency read?
Answer: The Potency was “inactive”.

Question: For O=C1CO[C@H]2CN(c3ncccn3)C[C@H]2N1CC1CCCCC1, which Potency is on record?
Answer: The Potency was “inactive”.

Question: With Cn1cc(-c2ccnc(N3CCOCC3)c2)c2nc(COc3ccc(Cl)cc3)cn2c1=O as the compound, how does the Potency read?
Answer: The Potency was inconclusive: 5.01 µM [inhibitor, partial curve, poor fit].
